Test results taken from PMC12040169 (PLOS Biology, 2025).
This is one part of the list.

Tested on: T1, C. trachomatis L2/434/Bu expressing GFP (CTL2-GFP)
T1 construct: L2/434/Bu GFP intracellular growth in HeLa cells
Parameters: species or system HeLa; C. trachomatis total inclusion area by high-content imaging, normalised to DMSO
Details: total inclusion area; 28.5 h, 10 µM; inhibitor
Method in brief: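 Following bulk GFP and resorufin fluorescence reads, infected cells were fixed, Hoechst-stained and imaged on a high-content platform. Inclusion total area and number per well served as growth proxies; nuclei counts indicated host viability. MICs were derived as for the fluorescence assay.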

SMILES	% of control remaining
CC(C)c1nccn1CC(=O)N(C)C(C)c1ccc(F)c(F)c1 (centres unmarked) [CBK306443]	41.5537
O=C(CSCCO)Nc1ccc(Oc2ccccc2)cc1 [CBK269167]	69.9285
[N-]=[N+]=Nc1nc2c(N)ncnc2n1C1CC(O)C(CO)O1 (centres unmarked) [CBK201178]	132.121
Cc1ccc2oc(-c3ccc(C)c(NC(=O)c4cc([N+](=O)[O-])ccc4Cl)c3)nc2c1 [CBK263055]	89.9214
COc1ccc(CN2C(=S)N(c3ccc(OC)cc3)[C@H]3[C@@H]2[C@H]2OC(=O)[C@@H]3C[C@H]2O)cc1 [CBK288934]	128.437
Cc1cc(C(F)F)n2nc(C(=O)NCc3ccccc3F)nc2n1 [CBK266228]	116.814
O=C(/C=C/c1ccco1)NC(=S)Nc1ccc(O)c(-c2nc3ccccc3s2)c1 [CBK264344]	83.8463
C=CCNC(=O)N[C@H]1CO[C@H]2[C@@H]1OC[C@H]2OC(=O)Nc1ccccc1 [CBK289466]	120.714
O=C(N/N=C/c1ccncc1)C1CC1C(=O)N/N=C/c1ccncc1 (centres unmarked) [CBK261115]	70.0739
Cc1ccc(Cn2nc(NC(=O)c3cccn3C)c3ccccc32)cc1 [CBK048214]	100.521
CSCCN1CCC(Oc2nccnc2OCC2COc3ccccc3O2)CC1 (centres unmarked) [CBK082996T]	90.8183
O=C(CCCn1ccnc1)N1CCCC(c2cc3cccnc3[nH]2)C1 (centres unmarked) [CBK284959]	92.1928
Cn1c(=O)[nH]c(=O)c2c(-c3ccccc3)ccnc21 [CBK288136]	51.9055
CN(C)c1cccc(Nc2ncc(-c3ccc(N4CCOCC4)cc3)n3ccnc23)c1 [CBK091222]	70.3759
CN(C)CCNCc1cccc(OCc2ccccc2)c1 [CBK278216C]	73.1426
COc1ccc(C2CNC(=O)N2C(=O)OC(C)(C)C)cc1OC1CCCC1 (centres unmarked) [CBK007281]	112.563
COc1ccc(-c2nnc(NC(=O)C3CCCCC3)o2)cc1 [CBK287592]	87.6181
CCn1cc(CN(C)Cc2csc(C)n2)c2cc(C(=O)O)ncc21 [CBK306950]	64.1828
CCC(=O)NCCc1c[nH]c2ccc([N+](=O)[O-])cc12 [CBK088059]	93.1867
O=S(=O)(Nc1ccc2[nH]ccc2c1)c1cccnc1 [CBK156811]	113.61
CC(=O)Oc1ccc(-c2cccc(C(=O)NCCO)c2)cc1 [CBK263829]	83.7087
CN(C)c1ccc(Nc2cc(-c3cccc4ccccc34)ncn2)cc1 [CBK037835]	30.1476
Cc1nc(-c2ccc(NC(=O)C3CC=CCC3C(=O)O)cc2)cs1 (centres unmarked) [CBK299815]	121.272
O=S(=O)(NCC1(c2ccccc2)CCCC1)c1cccnc1 [CBK282762]	89.4294
N#Cc1c(NC(=O)Cn2cnc3sc(-c4ccccc4)cc3c2=O)sc2c1CCC2 [CBK268053]	98.1565
CC1CCCCN1C(=O)CCn1c(C(F)F)cc2cccnc21 (centres unmarked) [CBK285024]	101.706
COc1cccc(OC)c1OCCNC1CCc2cc(Cl)ccc2C1 (centres unmarked) [CBK013079C]	87.5574

SMILES	% of control remaining
CC1CCN(c2nnnc3c2sc2nc(N4CCOCC4)c4c(c23)CC(C)(C)SC4)CC1 [CBK268062]	102.599
CCNC(=O)N1CC(C)N(CCCC(c2ccc(F)cc2)c2ccc(F)cc2)CC1C (centres unmarked) [CBK024912C]	41.2418
COc1cc(F)ccc1-c1nc2ncccc2cc1NS(C)(=O)=O [CBK085692]	85.6229
CCCCOc1ccc(-c2cn(CC(N)=O)cn2)cc1 [CBK009035]	88.4894
O=C(Cc1nnn[nH]1)N1CCCC2(CCN(C(=O)c3ccoc3)C2)C1 (centres unmarked) [CBK137077]	119.388
CCCC(C)N(C)C(=O)CCc1c(C)nc(-c2cccnc2)[nH]c1=O (centres unmarked) [CBK304965]	69.4737
C/C(=N\Nc1nc(-c2ccccc2)cs1)c1ccccc1 [CBK262104]	85.9634
O=C1c2cccc3cccc(c23)C(=O)N1CCCSc1nnc(-c2ccncc2)n1-c1ccccc1 [CBK268684]	88.1055
O=C(NCC(O)c1ccc(O)cc1)c1cnc(-c2ccc(Cl)cc2)c(-c2cccnc2)c1 (centres unmarked) [CBK036656]	135.405
Cc1nc(SCc2ccccc2)nc(O)c1CC(=O)O [CBK264203]	134.726
CCc1csc(C(=Cc2cccs2)C(N)=O)n1 [CBK001007]	101.928
Cc1cc(C)n(CC(O)CN(c2ccccc2)S(=O)(=O)c2ccccc2)n1 (centres unmarked) [CBK264469]	117.744
O=C(CNS(=O)(=O)c1cc(F)c(Br)cc1F)N1CCOCC1 [CBK042216]	85.8382
Cn1cc(CCNC(=O)NC2CCN(Cc3ccccn3)CC2)cn1 [CBK305297]	44.918
CC(=O)c1ccc(-c2cnc3[nH]c(=O)n([C@@H](C)c4ccccc4)c3n2)s1 [CBK064360]	132.932
CC1=C[C@@H](CC#N)[C@H](C(C)C)C[C@H]1CC(=O)Nc1ccccn1 [CBK289215]	79.5533
O=C(CN1C(=O)c2ccccc2C1=O)Nc1nc(-c2ccccc2)cs1 [CBK287343]	100.311
Cc1ccc(S(=O)(=O)Nc2ccnc(-c3ccc(CO)cc3)n2)cc1 [CBK067477]	102.725
COc1ccc2[nH]c3c(c2c1)CCNC31CCN(Cc2ccccc2)C1 (centres unmarked) [CBK073952C]	47.8748
Cc1cc(C)n(CC(C)NC(=O)N2CCC(Oc3cccnc3)C2)n1 (centres unmarked) [CBK305342]	16.348
COc1cc(C2Nc3ccccc3-c3nc(SC)nnc3O2)ccc1OCC(=O)O (centres unmarked) [CBK262687]	111.557
COC1C(O)C(CO)OC1n1cnc2c(=O)[nH]cnc21 (centres unmarked) [CBK201328]	110.519
COc1ccc(C(C)C)cc1-c1cncc(NCCc2ccccn2)n1 [CBK065325]	126.69
CC(CCCC(C)(C)O)Nc1cc(N2CCN(C)CC2)n2nccc2n1 (centres unmarked) [CBK037103]	71.3139
Cc1noc(N)c1C1OC(=O)c2ccccc21 (centres unmarked) [CBK022932]	66.5034
COc1cc([N+](=O)[O-])ccc1-c1ccc(/C=c2\sc3nc4cc(Br)cnc4n3c2=O)o1 [CBK262579]	84.7083
CC1CN(c2ccccc2Br)NC1=O (centres unmarked) [CBK026500]	27.8711

SMILES	% of control remaining
Cc1cc(C(=O)N2CCN(C(=O)c3cn(Cc4ccc(S(C)(=O)=O)cc4)nn3)CC2)n(C)n1 [CBK160824T]	97.9152
CC(=O)NC(CC(=O)N1CCCC(n2cccn2)C1)c1cccs1 (centres unmarked) [CBK305405]	25.1095
COc1nccc(N2CCN(C)C3(CCNC(=O)CC3)C2)c1C#N (centres unmarked) [CBK307676]	106.776
O=C(O)CNC(=O)/C(=C\c1ccco1)NC(=O)c1ccccc1Cl [CBK263967]	104.491
Cc1c(C)n(CC(=O)O)c2ccccc12 [CBK000884]	64.0967
O=C1/C(=C/c2ccccc2)S/C(=N/N=C/c2ccccc2)N1c1ccc(O)cc1 [CBK262803]	115.591
Cc1cc(OC(C)C(=O)Nc2ncccc2C)ccc1Cl (centres unmarked) [CBK269637]	87.0339
O=S1(=O)N=C(Nc2ccc(S(=O)(=O)N3CCOCC3)cc2)c2ccccc21 [CBK269116]	83.1047
O=C(c1ccc(-c2cncc(-c3cc4ccccc4[nH]3)c2)cc1)N1CCOCC1 [CBK158419T]	95.244
O=C(O)CNS(=O)(=O)c1ccc2ccccc2c1 [CBK034460]	108.926
Cn1c(SCCN2CCOCC2)nnc1-c1cccs1 [CBK010243]	16.0023
CS(=O)(=O)N(CC(=O)NCc1ccccn1)c1ccc(I)cc1 [CBK265369]	111.856
O=C(Nc1nc(OCCN2CCCC2=O)cnc1/C=C\c1ccccc1)c1cc2ccccc2s1 [CBK145380]	67.4944
CC(C)(C)NC(=O)NCC(c1ccc[nH]1)C(F)(F)F (centres unmarked) [CBK021595]	83.8919
Cc1c(C(=O)O)sc2nc(C=Cc3ccc(OCCC(C)C)cc3)[nH]c(=O)c12 [CBK297539]	107.823
c1ccc(C(NCc2cnc(-c3cnccn3)s2)C2CCC2)cc1 (centres unmarked) [CBK304016]	64.2666
Brc1cccc(OCc2cccs2)c1 [CBK176011]	35.5722
CC(C)(O)C#Cc1ccccc1C(=O)NC(Cc1c[nH]c2ccccc12)C(=O)O (centres unmarked) [CBK267701]	110.336
CCOc1ncccc1NC(=O)C(C)n1cccn1 (centres unmarked) [CBK245377]	98.3764
Cc1ccc(-n2c(SCC(N)=O)nnc2-c2ccccc2O)c(C)c1 [CBK269673]	104.823
O=C(O)c1ccc(S(=O)(=O)Nc2nnc(C(F)(F)F)s2)cc1 [CBK062023]	107.227
COc1ccc(-c2nccnc2OC)c(OC)c1 [CBK107039]	109.175
CC1(C)CCCC2=C1CC(C(=O)O)C(C(=O)NCc1cccnc1)C2 (centres unmarked) [CBK286795]	88.5066
O=C(O)C1CCCN(C(=O)NCc2ccc(F)cc2)C1 (centres unmarked) [CBK161364]	63.5472
O=C(CN1C(=O)S/C(=C\c2ccccc2OCc2ccccc2)C1=O)c1ccc(Cl)cc1 [CBK264628]	97.4254
CCN1C(=O)CC2(C1=O)C(=O)N(CCCOc1ccc(Cl)cc1)c1ccc(C)cc12 (centres unmarked) [CBK075648]	108.922
